These results are taken from the RNAGym collection of RNA variant scans (doi:10.1093/nar/gkz1192).

The source gives no read counts; variants with many changes may rest on few reads.

B1: CPEB3 Ribozyme (parent)
chain: UAACAGGGGGCCACAGCAGAAGCGUUCACGUCGCAGCCCCUGUCAGAUUCUGGUGAAUCUGCGAAUUCUGCUGUAUAUCUC

Variants of B1 are the subject of the data set. The experiment in a line: self-cleavage, relative activity (ratio to wild type); higher = more cleavage; in vitro, sequencing. The method in brief: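 Relative activity compares each variant's cleaved/total read fraction with that of the unmutated ribozyme. To get these fractions, barcoded CPEB3 ribozyme libraries from rounds of error-prone PCR were transcribed with T7 RNA polymerase for 5 hours at 37°C and then given 15 min of DNase I treatment before EDTA was added. The RNAs were reverse transcribed with template switching and sequenced on Illumina, and DNA sequencing linked barcodes to variants. A minimum of 5 reads applied, and three batches were averaged.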
On to U26C U43C U48C U74C, for which the self-cleavage came out at 0.36.
As for C27A G36A U43C U66C, the figure is 0.13; as for U26C U43A U54C U60A, 0.13.
The result for U26G U67C U72C reads 0.11; that for U26C U41C G42C, 0.27; that for U26C U43A A45G A47U U48A, 0.
As to U26C U54A A64U U72A, the self-cleavage was determined as 0.21.
The result for U26G C50U A64U A75U U76C reads 0.05; that for C27A G33A A57G, 0.15.
As for U26G C32A U58C U60A A64G, the figure is 0.12; as for C27A C29A U80A, 0.19; as for U26C U41C U60A U72A U78C, 0.15.
On to C27A C34G U72C, for which the self-cleavage stood at 0.3.
As to U26C U51A G55C, the self-cleavage is 0.26.
Regarding C27A A47G A56U, the self-cleavage came out at 0.08.
As for U26C U49C C50A U60A, the figure is 0.17.
Consider U26C U41C U48C U67C G73U, for which the self-cleavage is 0.3.
U26C U41C A77G: the self-cleavage amounted to 0.47.
As for U26C U43C U69A, the self-cleavage is 0.29.
As for U26C U49A U76C, the self-cleavage is 0.15.
For C27A A64G A65G, the self-cleavage is 0.09.
Take U26C U43C A45U U66C: the self-cleavage is 0.26.
As for U26C U41C A57G U60C U69A U72A U80C, the figure is 0.19; as for U26C U54C U69C, 0.35.
Take C27G C37G U51C U78A: the self-cleavage was 0.09.
As for U26G U31A U41C U48C A64G, the figure is 0.09; as for U26C U49C G53A A77G, 0.14; as for U26C U49A U58G C62U A77G, 0.13.
C27A U58C U69C A75U: the self-cleavage was found to be 0.11.
The result for U26C U41A U43A A45G U80C reads 0.37; that for U26C U48C A64G U69C, 0.14.
In the case of U26C U41C C44A A45G G53A, the self-cleavage amounted to 0.22.
The result for U26G A56G U76A reads 0.32; that for U26C U60G U66G, 0.1; that for C27U A28G C40A A56U A64G, 0.17.
As for U26C U41C A65G U76C, the figure is 0.17.
The result for U26C U41C U60A reads 0.33; that for U26C U41C A64G, 0.24.
With U26C U41C A64U, the self-cleavage came out at 0.27.
U26C U41C U54C: the self-cleavage turned out to be 0.39.
On to C27G A35U C37U U49C A57G, for which the self-cleavage was determined as 0.04.
In the case of U26C U66A U72A, the self-cleavage was 0.12.
As for U26C U41A U74A A75G, the figure is 0.29; as for U26C U43C U66C U69C G73A, 0.09.
Turning to U26C U58A A65U, the self-cleavage is 0.16.
As for U26C U43C G61U G70U, the figure is 0.12; as for U26C U60G A64G A65G C68U, 0.14; as for C27A A28G U41C U69C U74A U76C, 0.16.
As for U26C U41C U51A U54A U69C, the figure is 0.15.
The result for C27G U60C A64G A77G reads 0.05.
With U26C U41A U51C U67C C68A, the self-cleavage came to 0.25.
As for U26G A45G A47U A65G U67C, the figure is 0.1.
The result for U26C U48G G63A reads 0.11.
The result for U26G A47G U80C reads 0.46.
Consider U26G G46A U72A, for which the self-cleavage came to 0.19.
As for U26C U48C U78C, the figure is 0.48.
Take C27A C37U U78A: the self-cleavage came to 0.27.
As for C27A A28G C39A U41C U43A, the figure is 0.09; as for U26C U41C A56U, 0.14.
As for U26C U43A A45G G53A U69C G73C, the self-cleavage is 0.06.
With C27A A35G C50A, the self-cleavage was determined as 0.19.
As for U26G A45G G52A C71U, the figure is 0.06.
On to U26C U43G U49C U60A U67C U80C, for which the self-cleavage is 0.05.
As for U26C U69C A75G, the figure is 0.11; as for U26C U43C G61U U69A U80C, 0.18; as for U26G A56G U69A U80A, 0.06.
As for C27A A57U U58G, the figure is 0.07; as for U26C U48A G53U, 0.16; as for U26C U54C U67C C68U, 0.16.
As for U26C U41C G73A, the figure is 0.79.
U26C U48C U72A: the self-cleavage was 0.26.
In the case of U26C U43C U60A, the self-cleavage is 0.27.
As for U26C U48A U76C A77U, the figure is 0.18; as for U26C U48A G55C, 0.15.
Consider C27A A28U U43A, for which the self-cleavage came to 0.25.
The result for U26C U41C G42C U69C A77G U80A reads 0.15; that for U26C U43A A56U, 0.11; that for U26C U54G A57G, 0.42.
For U26C U69G U74C A77G, the self-cleavage is 0.37.
The result for U26C U49C G55A U72C A77C reads 0.12.
As for U26C U43C U67C, the figure is 0.23.
As for U26C U43C U67A, the figure is 0.41; as for C27A U31C U72A, 0.05; as for U26G C39U A56G U60A A65G, 0.13.
As for U26C U67A A77G, the self-cleavage worked out at 0.07.
For U26C U43C A45G, the self-cleavage came out at 0.5.
As for U26C U54C G55A, the figure is 0.18; as for U26C U54C A56U A77C, 0.1; as for U26C U43C U51C, 0.88.
As for C27A U51A A57G, the figure is 0.16.
The result for C27A U69A U72A reads 0.37; that for C27U A45G A47G C71U U72C, 0.06.
As to U26C U41C U51A C79A, the self-cleavage was determined as 0.65.
For the variant U26G G30C C81U, the self-cleavage came to 0.18.
As for U26C U51C U54C U72A, the figure is 0.45; as for U26C U72C U76G, 0.55; as for U26G U43A U67C U72C, 0.06.
As for U26C U43C A57G U67C U72A, the figure is 0.07; as for U26C U49C G55A U60C, 0.1; as for U26G C39U A56G U69C, 0.07.
In the case of U26C U43C C44U U49C U67C, the self-cleavage came out at 0.08.
The result for U26C U49A U51A reads 0.19.
Consider C27A A45C A64G, for which the self-cleavage turned out to be 0.06.
Regarding U26C U43C U49C A56U U58C, the self-cleavage turned out to be 0.12.
The result for U26C U54A U72C reads 0.5.
As for C27A U31C A56G A64G, the figure is 0.26; as for C27A A28G A35G C68U U69C, 0.16; as for U26C U54A U66C U80G, 0.18.
With U26C U49C A64C U67C, the self-cleavage is 0.12.
The result for U26C U43C U48C U74C U78C reads 0.24; that for U26C U78C U80C, 0.3; that for U26C U49C U78C, 0.16.
For U26C U67C U74C, the self-cleavage came to 0.19.
As for U26C U41A U74C U78G, the figure is 0.34; as for U26G A35G U67C C81U, 0.12.
The result for C27A A47G U51A reads 0.23.
As for C27A U49G C62A, the figure is 0.16.
Turning to U26G C29A A45G A64U, the self-cleavage stood at 0.12.
As for U26C U60G A64G U76G, the self-cleavage worked out at 0.07.
As for U26C U58G C62U G70C U72A, the figure is 0.08; as for U26C U41C U69C, 0.22.
For U26G A47G U72A U76A, the self-cleavage turned out to be 0.35.
U26G U41A A57G G61C U74C: the self-cleavage came out at 0.4.
For U26C U51C A56G U78C, the self-cleavage was found to be 0.16.
For the variant U26G A45G U66G, the self-cleavage was 0.19.
The result for U26C U66C U80C reads 0.22.
As for U26C U41C A45G U49C A56G A77U, the self-cleavage is 0.07.
U26C U41C U60C A64U U72G: the self-cleavage was determined as 0.11.
Turning to U26C U48C U60A U78C, the self-cleavage was determined as 0.17.
As for U26C U51A U58C U60C A77G, the figure is 0.11; as for C27G U48C U78C, 0.13.
As for C27G G46A U51C U58C U69A A75U, the figure is 0.14.
Take C27G A35G A45U A77G: the self-cleavage was determined as 0.08.
Regarding U26C U60C G70A C79U, the self-cleavage turned out to be 0.16.
For U26C U49C C59U U67C U74A, the self-cleavage was 0.11.
As to C27G U54C U80C, the self-cleavage worked out at 0.26.
Regarding U26G U49C U80C, the self-cleavage came out at 0.49.
The result for U26C U51A U69A U74C reads 0.11.
The result for C27U A35G U60A reads 0.26; that for C27A U49C U69C, 0.13.
The result for C27G G33U U43C G63U reads 0.14; that for U26G U31C A45U U58A U69A U72C, 0.05.
Turning to U26C U54C C62U U78C, the self-cleavage came out at 0.05.
As for U26C U41A U48C U66C A75G, the self-cleavage came out at 0.06.
Turning to U26C U51A A56G, the self-cleavage was 0.43.
Regarding U26G U51A A56U, the self-cleavage was found to be 0.13.
As to U26C U49C A56G, the self-cleavage came out at 0.48.
Consider U26C U51C A65G, for which the self-cleavage was found to be 0.48.
The result for U26G U43A U67C A77G reads 0.15; that for U26C U51C U72G, 0.3; that for U26C U54C U60A A64U U78C, 0.08.
Turning to C27A A45G A47G, the self-cleavage came out at 0.13.
As for U26C U41C U49C U51A A75U, the figure is 0.24; as for U26C U60A A75U, 0.42; as for U26C U49A U54A, 0.15.
The result for U26C U51C U69A reads 0.38; that for U26C U54C A56G, 0.16.
Turning to C27A G30U U54C U58A G73A, the self-cleavage stood at 0.13.
Take U26C U41A U60A U78A: the self-cleavage was found to be 0.08.
On to U26C U49C U54C A64G C81U, for which the self-cleavage is 0.22.
The result for C27A U66C U78C reads 0.14; that for C27G U43C A56G U80A, 0.24; that for U26C U43C G70U, 0.26.
As for U26G U41C A45G U51C U58C, the figure is 0.38; as for U26C U60C G70A U80C, 0.08; as for U26C U43C U78C, 0.48.
As to U26G C44G C62A, the self-cleavage amounted to 0.07.
